One assay concerns the target T1, human NT5E(1-552)-his (human, UniProt P21589 27-552).
T1 construct: The entry starts at Met 1
T1 sequence: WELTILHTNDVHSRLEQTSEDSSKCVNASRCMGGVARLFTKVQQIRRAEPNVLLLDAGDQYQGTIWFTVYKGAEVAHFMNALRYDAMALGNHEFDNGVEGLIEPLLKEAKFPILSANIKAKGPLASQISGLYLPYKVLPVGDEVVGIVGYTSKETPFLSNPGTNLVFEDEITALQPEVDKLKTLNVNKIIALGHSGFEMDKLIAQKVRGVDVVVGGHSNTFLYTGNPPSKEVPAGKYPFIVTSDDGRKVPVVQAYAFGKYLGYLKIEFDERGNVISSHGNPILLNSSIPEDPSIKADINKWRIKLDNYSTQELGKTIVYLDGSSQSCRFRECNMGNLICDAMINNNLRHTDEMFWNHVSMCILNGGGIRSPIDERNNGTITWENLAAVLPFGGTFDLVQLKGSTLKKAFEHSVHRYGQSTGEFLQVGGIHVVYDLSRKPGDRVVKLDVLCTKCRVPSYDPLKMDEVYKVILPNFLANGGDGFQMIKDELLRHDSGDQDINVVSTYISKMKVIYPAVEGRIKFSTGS
Briefly: BLI (Fortebio), NT5E(1-552)-his on HIS1K sensor, antibody 0.31-25 nM, 30 C. How it is done: The sample dilution buffer was PBS (0.02% Tween-20, 0.1% BSA, pH 7.4). […] The protein was dissociated in the buffer for 180 s. […] The data were analyzed by 1:1 model fitting to obtain affinity constants.

Assay [1] concerns the target T2, human PD-1-mFc-biotin (human, UniProt Q15116 fragment, limits assumed, biotin label, site not stated). Briefly: competitive ELISA, competitor coated PD-L1-mFc; antibody 50 nM. As for the experimental part:
(§1) After incubation, the microplate was blocked with a PBS solution containing 1% BSA at 37° C. for 2 h. […] The antibody was serially diluted to 7 concentrations in a gradient ratio of 1:3 on a dilution plate with 10 μg/mL as the starting concentration, and a blank control was set. […] Then the mixture after reaction was added to the coated microplate, and the microplate was incubated for at 37° C. for 30 min. After incubation, the plate was washed three times with PBST and dried. SA-HRP (KPL, 14-30-00) working solution was added, and the plate was incubated at 37° C. for 30 min. After incubation, the plate was washed four times and patted dry. Then TMB (Neogen, 308177) was added in the dark for chromogenesis for 5 min, and a stop solution was added to terminate chromogenic reaction. Then the microplate was put into a microplate reader immediately, and the OD value of each well in the microplate was read at 450 nm. The data were analyzed and processed by SoftMax Pro 6.2.1.

Assay [2] deals with T3, PD-1-mFc (human, UniProt Q15116 fragment, limits assumed).
T3 construct: also called human PD-1-mFc
The experiment in a line: ELISA, PD-1-mFc coated. How it is done:
Then the microplate coated with antigens was washed once with PBST, and then blocked with a PBS solution containing 1% BSA as blocking solution at 37° C. for 2 h. After blocking, the microplate was washed 3 times with PBST. The microplate containing the test antibodies was incubated at 37° C. for 30 min, and then washed 3 times with PBST. […] The microplate was put into a microplate reader immediately, and the OD value of each well in the microplate was read at 450 nm. The data were analyzed and processed by SoftMax Pro 6.2.1.
A general note: In an ELISA, binding on a coated surface is turned into a signal by an enzyme label.

The target of assay [3] is T2, human PD-1-mFc-biotin. Briefly: competitive ELISA, blocking of PD-1-mFc-biotin binding to coated PD-L1-mFc. How it is done:
as §1

Another assay deals with T4, human NT5E-Biotin (human, UniProt P21589 27-552, limits assumed, biotin label, site not stated).
T4 construct: Captured on streptavidin-coated plates; also called human NTSE-Biotin
T4 sequence (looked up): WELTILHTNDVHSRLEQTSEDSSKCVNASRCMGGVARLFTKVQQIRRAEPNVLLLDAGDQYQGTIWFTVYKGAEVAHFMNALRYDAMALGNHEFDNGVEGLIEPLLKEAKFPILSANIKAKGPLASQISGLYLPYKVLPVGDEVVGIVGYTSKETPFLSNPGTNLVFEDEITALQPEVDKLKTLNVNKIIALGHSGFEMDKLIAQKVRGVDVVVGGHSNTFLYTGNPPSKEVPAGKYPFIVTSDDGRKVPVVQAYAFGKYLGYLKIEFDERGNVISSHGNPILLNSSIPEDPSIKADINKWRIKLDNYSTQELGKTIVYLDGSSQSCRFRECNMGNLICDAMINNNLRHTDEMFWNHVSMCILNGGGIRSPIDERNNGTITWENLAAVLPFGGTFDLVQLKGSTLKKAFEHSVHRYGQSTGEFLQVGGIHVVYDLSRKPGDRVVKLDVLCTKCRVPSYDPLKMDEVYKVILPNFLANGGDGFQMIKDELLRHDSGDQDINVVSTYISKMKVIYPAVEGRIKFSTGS
The experiment in a line: ELISA, NT5E-biotin on streptavidin. As for the experimental part: After incubation, the microplate coated with streptavidin was washed once with PBST, and blocked with a PBS solution containing 1% BSA as a microplate blocking solution at 37° C. for 2 h. After blocking, the microplate was washed 3 times with PBST. […] Then, the plate was washed 3 times with PBST. […] The microplate containing the test antibodies was incubated at 37° C. for 30 min, and then washed 3 times with PBST. […] The microplate was put into a microplate reader immediately, and the OD value of each well in the microplate was read at 450 nm. The data were analyzed and processed by SoftMax Pro 6.2.1.

Assay [4] concerns the target T3, PD-1-mFc. The experiment in a line: BLI (Fortebio), PD1-mFc on AMC sensor, antibody 0.62-50 nM, 30 C. As for the experimental part: The sample dilution buffer was PBS (0.02% Tween-20, 0.1% BSA, pH 7.4). […] The data were analyzed by 1:1 model fitting to obtain affinity constants.
For orientation: Biolayer interferometry detects binding as a change in optical thickness at a sensor tip.

In assay [5] the target is T2, human PD-1-mFc-biotin. Briefly: competitive ELISA, competitor coated PD-L1-mFc; antibody 50 nM diluted 1:3. As for the experimental part:
as §1

Here are results for three molecules from patent publication US20230151111A1 (AKESO BIOPHARMA, published 2023).

T2 sequence (Q15116 other isoform, or with tags, fused parts or gaps limits assumed): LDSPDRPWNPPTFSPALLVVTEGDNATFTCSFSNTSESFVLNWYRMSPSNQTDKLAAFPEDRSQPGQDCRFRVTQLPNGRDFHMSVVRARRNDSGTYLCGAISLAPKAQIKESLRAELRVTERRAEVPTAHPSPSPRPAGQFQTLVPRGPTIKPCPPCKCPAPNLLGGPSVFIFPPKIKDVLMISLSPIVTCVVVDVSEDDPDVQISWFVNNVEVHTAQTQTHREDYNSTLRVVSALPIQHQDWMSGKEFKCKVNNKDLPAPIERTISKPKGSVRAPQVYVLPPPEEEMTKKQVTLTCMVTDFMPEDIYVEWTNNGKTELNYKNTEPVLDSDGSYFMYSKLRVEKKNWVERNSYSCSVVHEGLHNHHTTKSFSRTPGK
T3 sequence (Q15116 other isoform, or with tags, fused parts or gaps limits assumed): as above

B1: NTPDV4 (bispecific antibody, human IgG1, kappa)
heavy: QVQLVQSGAEVVKPGASVKVSCKASGYSFTGYTMNWVRQAPGQNLEWIGLINPYNAGTSYNQKFQGKVTLTVDKSTSTAYMELSSLRSEDTAVYYCARSEYRYGGDYFDYWGQGTTLTVSSASTKGPSVFPLAPSSKSTSGGTAALGCLVKDYFPEPVTVSWNSGALTSGVHTFPAVLQSSGLYSLSSVVTVPSSSLGTQTYICNVNHKPSNTKVDKKV[human IgG1 Fc with L234A L235A G237A (EU numbers) omitted]GGGGSGGGGSGGGGSGGGGSEVQLVESGGGLVQPGGSLRLSCAASGFAFSSYDMSWVRQAPGKGLDWVATISGGGRYTYYPDSVKGRFTISRDNSKNNLYLQMNSLRAEDTALYYCANRYGEAWFAYWGQGTLVTVSSGGGGSGGGGSGGGGSGGGGSDIQMTQSPSSMSASVGDRVTFTCRASQDINTYLSWFQQKPGKSPKTLIYRANRLVSGVPSRFSGSGSGQDYTLTISSLQPEDMATYYCLQYDEFPLTFGAGTKLELKR
light: DIVMTQSPSSLAVSVGERVTISCKSSQSLLNSSNQKNYLAWYQQKPGQAPKLLIYFASTRESGVPDRFSGSGSGTDFTLTISSVQAEDVADYYCQQHYDTPYTFGGGTKLEIKRTVAAPSVFIFPPSDEQLKSGTASVVCLLNNFYPREAKVQWKVDNALQSGNSQESVTEQDSKDSTYSLSSTLTLSKADYEKHKVYACEVTHQGLSSPVTKSFNRGEC
notes: also called NTPDV4(hG1TM)
As for B1, the results for the dissociation constant Kd with human NT5E(1-552)-his and with PD-1-mFc [4] were 0.0577 nM and 0.0113 nM, respectively. Moreover, the koff with human NT5E(1-552)-his stood at 7.09e-05 s⁻¹; in the assay with PD-1-mFc [4], 6.03e-06 s⁻¹. Further, the figures for the kon with human NT5E(1-552)-his and in the assay with PD-1-mFc [4] were 1.23e+06 M⁻¹ s⁻¹ and 535000 M⁻¹ s⁻¹, respectively. This molecule displayed an OD450 with human PD-1-mFc-biotin [1] of 0.076 OD. Moreover, the EC50 stood at 0.123 nM in the assay with PD-1-mFc [2], 2.22 nM in the assay with human PD-1-mFc-biotin [3] and 0.077 nM in the assay with human NT5E-Biotin.

B2: NTPDV1 (bispecific antibody, human IgG1, kappa)
heavy: QVQLVQSGAEVVKPGASVKVSCKASGYSFTGYTMNWVRQAPGQNLEWIGLINPYNAGTSYNQKFQGKVTLTVDKSTSTAYMELSSLRSEDTAVYYCARSEYRYGGDYFDYWGQGTTLTVSSASTKGPSVFPLAPSSKSTSGGTAALGCLVKDYFPEPVTVSWNSGALTSGVHTFPAVLQSSGLYSLSSVVTVPSSSLGTQTYICNVNHKPSNTKVDKKV[human IgG1 Fc with L234A L235A G237A (EU numbers) omitted]GGGGSGGGGSGGGGSGGGGSEVQLVESGGGLVQPGGSLRLSCAASGFAFSSYDMSWVRQAPGKGLDWVATISGGGRYTYYPDSVKGRFTISRDNSKNNLYLQMNSLRAEDTALYYCANRYGEAWFAYWGQGTLVTVSSGGGGSGGGGSGGGGSDIQMTQSPSSMSASVGDRVTFTCRASQDINTYLSWFQQKPGKSPKTLIYRANRLVSGVPSRFSGSGSGQDYTLTISSLQPEDMATYYCLQYDEFPLTFGAGTKLELKR
light: DIVMTQSPSSLAVSVGERVTISCKSSQSLLNSSNQKNYLAWYQQKPGQAPKLLIYFASTRESGVPDRFSGSGSGTDFTLTISSLQAEDVAVYYCQQHYDTPYTFGGGTKLEIKRTVAAPSVFIFPPSDEQLKSGTASVVCLLNNFYPREAKVQWKVDNALQSGNSQESVTEQDSKDSTYSLSSTLTLSKADYEKHKVYACEVTHQGLSSPVTKSFNRGEC
notes: Morrison form IgG-scFv, Fc with L234A/L235A/G237A; also called NTPDV1(hG1TM)
Regarding B2, in the assay with human NT5E(1-552)-his, the Kd was 0.0329 nM, the koff was determined as 3.8e-05 s⁻¹ and the kon was 1.16e+06 M⁻¹ s⁻¹. Also, in the assay with PD-1-mFc [2], the concentration giving a half-maximal response (EC50) came out at 0.101 nM. In the assay with human PD-1-mFc-biotin [5], the OD450 worked out at 0.083 OD. In the assay with human NT5E-Biotin, this molecule gave an EC50 of 0.079 nM. Further, in the assay with PD-1-mFc [4], the affinity, expressed as Kd, was 0.14 nM; the koff was 8.55e-05 s⁻¹; the kon was 609000 M⁻¹ s⁻¹.

B3: NTPDV3 (bispecific antibody, human IgG1, kappa)
heavy: QVQLVQSGAEVVKPGASVKVSCKASGYSFTGYTMNWVRQAPGQNLEWIGLINPYNAGTSYNQKFQGKVTLTVDKSTSTAYMELSSLRSEDTAVYYCARSEYRYGGDYFDYWGQGTTLTVSSASTKGPSVFPLAPSSKSTSGGTAALGCLVKDYFPEPVTVSWNSGALTSGVHTFPAVLQSSGLYSLSSVVTVPSSSLGTQTYICNVNHKPSNTKVDKKV[human IgG1 Fc with L234A L235A G237A (EU numbers) omitted]GGGGSGGGGSGGGGSGGGGSEVQLVESGGGLVQPGGSLRLSCAASGFAFSSYDMSWVRQAPGKGLDWVATISGGGRYTYYPDSVKGRFTISRDNSKNNLYLQMNSLRAEDTALYYCANRYGEAWFAYWGQGTLVTVSSGGGGSGGGGSGGGGSDIQMTQSPSSMSASVGDRVTFTCRASQDINTYLSWFQQKPGKSPKTLIYRANRLVSGVPSRFSGSGSGQDYTLTISSLQPEDMATYYCLQYDEFPLTFGAGTKLELKR
light: DIVMTQSPSSLAVSVGERVTISCKSSQSLLNSSNQKNYLAWYQQKPGQAPKLLIYFASTRESGVPDRFSGSGSGTDFTLTISSVQAEDVADYYCQQHYDTPYTFGGGTKLEIKRTVAAPSVFIFPPSDEQLKSGTASVVCLLNNFYPREAKVQWKVDNALQSGNSQESVTEQDSKDSTYSLSSTLTLSKADYEKHKVYACEVTHQGLSSPVTKSFNRGEC
notes: Morrison form IgG-scFv; also called NTPDV3(hG1TM)
For B3, the dissociation constant (Kd) came out at 0.0792 nM in the assay with human NT5E(1-552)-his and 0.125 nM in the assay with PD-1-mFc [4]. Besides, the koff with human NT5E(1-552)-his was 0.000102 s⁻¹; in the assay with PD-1-mFc [4], 8.35e-05 s⁻¹. Besides, the kon with human NT5E(1-552)-his amounted to 1.28e+06 M⁻¹ s⁻¹; in the assay with PD-1-mFc [4], 668000 M⁻¹ s⁻¹. The EC50 with PD-1-mFc [2] amounted to 0.11 nM; in the assay with human PD-1-mFc-biotin [3], 2.4 nM; with human NT5E-Biotin it was 0.084 nM.

As usually defined, the Kd is a measure of binding affinity in units of concentration. A word on the koff: it is the first-order rate constant of dissociation. By kon is commonly meant the rate constant with which the complex forms. Lower therefore signals slower complex formation. In general, EC50 refers to the concentration giving half of the maximal effect. A high value points to lower potency in that assay.
